Reference: patent publication US9839646B2, “Small molecule enhancer for dendritic cell cancer vaccines” (priority 2011, dated 2017)
Like-named read-outs stand apart in the source and are kept apart here.

What was measured:
RMS = test: Established RMS tumor model with RMS DC vaccine; assay type: in vivo, C57BL/6 mice
Description: C57BL/6 mice bearing established RMS were vaccinated intramuscularly in a hind limb with RMS DC vaccine on day 10 after tumor inoculation. […] Another group of mice received vaccine but no compounds and groups of unvaccinated mice received compounds or vehicle. 8 replicate mice were treated in each regimen.
The RMS cell line was derived from Ink4a/Arf^−/− mice transgenic for hepatocyte growth factor/scatter factor (HGF/SF) that develop malignant RMS with high penetrance. DC vaccine will be prepared by incubating bone marrow derived DCs with apoptotic bodies generated from RMS cells as previously described. Tumor growth was monitored by caliper measurement every 2 days.

RMS M3-9-M [1] = test: Tumor-primed T cell transfer, late treatment RMS M3-9-M model; assay type: in vivo, mice
RMS M3-9-M [2] = test: Adoptive T cell transfer in Rag1-/- recipients, RMS M3-9-M; assay type: in vivo, Rag1-/- mice
From the text: (A) Female Rag1^−/− mice received naïve or RMS-primed T cells one day after tumor challenge.

RMS M3-9-M [3] = test: DC vaccination late treatment model, RMS M3-9-M; assay type: in vivo, mice
G-CSF and CXCL1 = test: Cytokine assay in BALB/c mice (serum ELISA); assay type: in vivo
Description: Method for Cytokine Assay in BALB/c Mice. […] Blood was collected by cardiac puncture at various times post-dose and serum was prepared for analysis by ELISA. The samples were assayed for mouse mouse cytokines G-CSF and mouse CXCL1 using ELISA kits from R&D Systems (Cat. No. MCS00 and MKC00B respectively). All measurements were made in duplicate. Serum samples were diluted as necessary to obtain values within the range of the assays. Optimal dilutions required varied depending on the test agent and can range from no dilution for control samples or test agents with no activity to 1:1000 dilution for very high samples. […] The dose response varies with test agent but 20 μg/mouse dose is an acceptable baseline dose for response assessment. Typically 6 animals are measured for each agent at each time point.

NK cells = test: NK cell marker expression in treated nude mice; assay type: in vivo; details: NK cells from treated nude mice
human NK cells = test: CD69 induction on human NK cells in vitro; assay type: cell-based; details: cultured human PBLs, 1 day incubation
Description: The results shown are with cultured human PBLs from two healthy donors after a 1 day incubation.

RMS M3-9-M [4] = test: Tumor rechallenge, M3-9-M RMS model; assay type: in vivo, C57BL/6 mice; details: 200 μg oral on days 3-7, 17-21, 24-28, 31-35; rechallenge day 56, no additional treatment; n=7, p=0.0175
Description: An effective vaccine for cancer would have the advantage of establishing immunological memory that can protect against disseminated metastasis or tumor regrowth following clinical response to initial treatment. […]. Mice were monitored for secondary tumor growth for a further 20-30 days without any additional therapeutic treatment. […] Groups of 4 mice were tested for immunological memory. […].

Th17 cells = details: in vitro; V. Kuchroo, unpublished data; cited from earlier work
[5] = Maximum tolerated dose study in Sprague Dawley rats
[6] = tested on: proinflammatory cytokine and chemokine mRNA; details: 2 hours after oral administration; tumor and lymph node tissue; cited from earlier work
[7] = C57BL/6 mice, cited from earlier work

CC(C)(C)[C@H](N)C(=O)N1CCC[C@H]1B(O)O [ARI-4175, t-butylGly-boroPro]
tumor regression by day 25 (RMS; compound by itself, no vaccine, daily gavage 10 mg/kg cycle 1, 5 mg/kg cycles 2 and 3): 3/8 | tumor growth (RMS; compound by itself, 10/5 mg/kg daily gavage): significantly slowed tumor growth | tumor regression (RMS; in combination with RMS DC vaccine, daily gavage 10 mg/kg cycle 1, 5 mg/kg cycles 2 and 3): 6/8 | mouse survival (RMS; in combination with vaccine, P=0.0045): increased mouse survival significantly | tumor volume compared to saline (RMS M3-9-M [1]; ARI-4175 alone, n=10, p=0.0019): significantly smaller tumors | survival (RMS M3-9-M [1]; plus naive T cells, n=10): 40% | tumor volume compared to ARI-4175+naive T cell recipients (RMS M3-9-M [1]; plus primed T cells, difference not significant, n=10, p=0.0755): smaller tumors | survival to day 80 (RMS M3-9-M [1]; plus primed T cells, n=10): Eight of ten | tumor size by day 10 vs saline treated mice (RMS M3-9-M [2]; Rag1-/- mice given naive (p=0.0159) or primed (p=0.0079) T cells, n=5): significantly smaller tumors | tumor size overall (RMS M3-9-M [2]; in combination with tumor-primed T cells): smallest tumors overall | tumor size compared to ARI-4175 alone (RMS M3-9-M [3]; combination with DC vaccine, n=7, p=0.0481): significantly smaller tumors | survival compared to controls (RMS M3-9-M [3]; with sham vaccine or DC vaccine, n=7, p<0.001): significantly improved survival | induction of cytokines in vivo (G-CSF and CXCL1; BALB/c mice, serum): very potent inducer of cytokines | stimulation of G-CSF, time course (G-CSF and CXCL1; after administration): increased until 6 h | CXCL1 induction, time course (G-CSF and CXCL1; after administration, had disappeared by 6 h): rapidly induced at 3 h | serum IL-18, IL-1β and IFN-γ compared to vehicle (G-CSF and CXCL1; much lower levels than G-CSF and CXCL1): increased | NK cell expression of FcγRIII receptor CD16 (NK cells): increased | NK cell expression of degranulation marker LAMP-1 (NK cells): increased | activation marker CD69 on human NK cells (human NK cells): increased | outcome of tumor rechallenge (RMS M3-9-M [4]): initial growth followed by rejection in all mice | development of IL-17 producing Th17 cells (Th17 cells): stimulate development | deaths ([5]; 0.01 mg/kg SQ, 48 hours post-dose): did not result in any deaths | deaths ([5]; 0.025 mg/kg SQ): one death | adverse effects ([5]; 0.05 mg/kg PO): no adverse effects | deaths ([5]; 0.05 mg/kg SQ, within first 24 hours, six rats): at least one animal death

CC(C)[C@H](N)C(=O)N1CCC[C@H]1B(O)O [PT-100, Val-boroPro, reference compound]
mice with reduced tumor growth (RMS; 1 mg/kg with the vaccine): 2 out of 6 | tumor regression by day 25 (RMS; 1 mg/kg, either with or without DC vaccination): failed to produce tumor regression | stimulation of G-CSF and CXCL1/KC (G-CSF and CXCL1; BALB/c mice, serum): stimulates | expression of proinflammatory cytokine and chemokine mRNA [6]: stimulates expression | MTD [7]: ~2 mg/kg | MTD ([7]; end point mortality): ~2 mg/kg/day
